Over roughly 4,500 sequences, “median log2 fold change of GCK-ALFA target abundance (FLAG IP / Myc IP barcode read proportion)” has its median near 0.078; the lowest 2% begin near -0.6. Some of the results follow.

First the molecules themselves.
B1: GBRAP_11_2827 (protein)
chain: EKEKLKRLAEKAREIAKELEKLIKSGNPTEEELEELLKKAEELLKETKEYGTPAQVKLAEILLEEIKEAIANPEKQKEYLEQALAFARVLEGQYLLEADE
B2: GBRAP_39_5647 (protein)
chain: DEEEENELLFSYFEALAMKYQIEKGISTEELIKEGLELLEKLKKEYPEIKELLDELIKLAKEGDEETKLAAVGIALLKEEGESVEKLKEHIEKFIKYVKS
B3: GBRAP_160_4008 (protein)
chain: SPETEALKEEIRELIEELIEDMKGLSPEERITLARGMMGDILQLAFDSPVVSDETEDEIAEIGDEFLAELEANADAPLEVWVELAEDFEERIFELLDKSE
B4: GBRAP_137_3620 (protein)
chain: KTVRITFYEEDGTLIAEITADTSVDREKLLALVEEVAEKHGVQLVVAESEPDEPLELYLVGEPEKVIAAVKDLIERLKEELGVEVVLESDGAEAAVEAVK
B5: GBRAP_39_5712 (protein)
chain: DKEEELELLASYGEALFDRYAYENGISEEEAIKEGLEFMRELAERNPEHREEILALLEEAEKLGEEAKRYVAAAAALIRDGMSLEEAIEVLKYKLEQLKK
B6: GBRAP_52_6161 (protein)
chain: MKEKAEEYANKVIEAVKAGKEEELEKLLKEIAETLSEEEIELMLDIIAEKVPELTPEEAERVVEAAIRLEDLGIEAGKDEELLSYKLARVAAAAYARLQA
B7: GBRAP_122_2941 (protein)
chain: SELRAEIEALIDGIVAALAAGDEEELDALAERLVKLFGKVSPEEARAAVERLLARLAGDPEARERALRALLKAFYKLEPQNAAQEAAADVVAEEFDKLSE
B8: GBRAP_160_4111 (protein)
chain: NEELKKFAEENAEDLKETIEIIEDLSNEEAGVLALVTIGEALIDASEYDEKFEELEKLAEELEKKIRETAEKDPENLKEVSLEALKELREAFEKKAKELK
B9: GBRAP_11_2710 (protein)
chain: RKETLKELAERAEELAREIERLIKEGPTKEEIKRLLERVRELLEEARKAGLPQSVLDLLEIAAESLEKAIEDPENVEQYLREALAALRVLAGQLLLLAEE
B10: GBRAP_52_6031 (protein)
chain: SRERMRALARELIDLVLAGRDDEARALAEELVATLSEEELRLLGEELARLTREAAPEDLDAYMRAAEIVADALEAAGYDEVLADDLLARVAAAAVENLAR
B11: GBRAP_95_7058 (protein)
chain: DEDVEIAEALFDTAVDLAEAGFDEQAAKAVAALADQILELGGNKVDAKVDPETALKLARIAAATLDPERARAVTDLLGAAVGDPETAARLRAILAAAEAA
B12: GBRAP_52_6169 (protein)
chain: SAAEAARLADEILAAVRAGDEERVAALLERIAATLSDEEIAATLAAIAERVPSLSPEDQERVVEVALRLEDVAEAAGHDPEVLDYEVARVAAAAYAALQA
B13: GBRAP_128_3163 (protein)
chain: SMEEVKKETEKLMEEFINSSLEEAKKIAEEIFEKFKEVNDEEREVMTEVVLKNLPKLSVEKLDILADVFRERRPELDEYGQELVNEIIVEALNVAEEKEE
B14: GBRAP_11_2746 (protein)
chain: MKEKLKEIEKLAEKLAETLQKLIEKGVDDKELLEEAEKLLKELEELVKKYGDESLKKLAKIAKEDFEKAKKDPANALLYLKNALAAARVLAGQVKLEIEE
B15: GBRAP_128_3185 (protein)
chain: SVEEVREETRRAAEEIKNSDKEEARKIARELFERLLGLSLEEAEAAVEVLEEMLPEFSEEKLEIIAEVAREVRPKADPEKARLIAGLEVEALNRIEELEE
B16: GBRAP_52_6316 (protein)
chain: MREEAERLAEELVELVKEGKREEARKLAKEIAENKSLEFLELLAEVLAERILEADEETADALLEAAEILAEALIEAGHDEAVASDFLAAAARAAYERELR
B17: GBRAP_160_4087 (protein)
chain: SAEAKALIARVREIFDEAIEMMEDVSREEAVAIALVALGEVALEIEEAEFLSEEDKEKLLALVDEGEERIRAAADASVEEIIALLREFEERIVAAIEEAA
B18: GBRAP_160_4100 (protein)
chain: SEKTEKLIKEIEELAKEAKEMIEGESIEQRATIVRGFGGEVIMLLMSSGEVSDETVDFADEVFDEVVDTILANPDLTLEEIKELIDEAVEKVKKKIKEDA
B19: GBRAP_95_7033 (protein)
chain: EDDKLALESAIEVAVAAAELGDDDAAARALREALELLKKAGKVELDEELLKEAIDVIERVGVKKLPREDVLELLELLLEAAETEEVKELAEKAIERVKKR

For the test, the target named is GABARAP, O95166. Nature of the test: median log2 fold change of GCK-ALFA target abundance (FLAG IP / Myc IP barcode read proportion) (log2 ratio); each designed protein is fused to an ALFA-tag nanobody in HEK293 cells to bring the named protein to FLAG-tagged glucokinase (GCK); Myc marks an untargeted standard; higher = target protein stabilised (more abundant). To be noted: target protein: 3xFLAG-MCP-GCK-ALFA reporter; HEK293 landing pad (RPLP). The essentials: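 Sequencing of reverse-transcribed, amplified circular RNA barcodes from anti-FLAG and anti-Myc immunoprecipitates provided the readout for an ALFA-nanobody-fused binder library recombined into HEK293 landing-pad cells. Those cells were induced with 2 μg mL^−1 doxycycline, transfected with a plasmid expressing a FLAG-tagged target and a Myc-tagged standard, and lysed after 48 h. Target abundance is the per-binder median log2 ratio of FLAG to Myc barcode read proportions. Only barcodes at a proportion of ≥10^−7 in both replicates and binders with ≥3 barcodes per replicate were kept, with a 10^−6 pseudocount added before the two replicates were pooled.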
GABARAP, O95166, sequence (O95166 whole entry, the tested form may be a part): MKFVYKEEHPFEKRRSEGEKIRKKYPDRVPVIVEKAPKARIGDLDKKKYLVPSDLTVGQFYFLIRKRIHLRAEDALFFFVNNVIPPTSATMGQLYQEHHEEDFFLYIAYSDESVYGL
As to B1, the “median log2 fold change” value came to 0.0418.

As for B2, the “median log2 fold change” value turned out to be 0.266.

On to B3, for which the “median log2 fold change” value is -0.065.

With B4, the “median log2 fold change” value was -0.0746.

Regarding B5, the “median log2 fold change” value stood at 0.014.

With B6, the “median log2 fold change” value is 0.0239.

As for B7, the “median log2 fold change” value stood at 0.269.

Consider B8, for which the “median log2 fold change” value was -0.204.

As for B9, the “median log2 fold change” value was -0.051.

Regarding B10, the “median log2 fold change” value is -0.202.

On to B11, for which the “median log2 fold change” value is -0.412.

For B12, the “median log2 fold change” value is -0.236.

In the case of B13, the “median log2 fold change” value was found to be 0.0674.

As for B14, the “median log2 fold change” value came to 0.229.

Consider B15, for which the “median log2 fold change” value came to 0.318.

As for B16, the “median log2 fold change” value was found to be 0.0705.

As to B17, the “median log2 fold change” value was found to be 0.0122.

Take B18: the “median log2 fold change” value was -0.177.

In the case of B19, the “median log2 fold change” value was 0.148.

The record behind these values is the supplement of paper PMC12632987.
